# Experimental data published in the supplement of paper PMC10037445.
# Whole data set: some 2,900 compounds, median “NF-kB SEAP reporter activity, fold change vs agonist alone” near 0.99, cut for the highest 2% near 2.6. Some of the results follow.
# How the values were obtained:
# RAW-Dual [1] = assay: NF-kB SEAP reporter activity, fold change vs agonist alone; higher = enhanced NF-kB activity; details: library stock concentration (final ~1000-fold dilution): 10 mM
# Method in brief: (§1)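 Supernatant from RAW-Dual macrophages was read after 20 hours for IRF by QuantiLuc luminescence and for NF-κB by QuantiBlue absorbance at 620 nm. The cells (50,000 cells/well in DMEM, 384-well plates, 37 °C, 5% CO2) had received 50 nL of library stock by pin tool and, 1 h later, a PRR agonist. Reporter activity is expressed relative to agonist-alone wells as fold change, and wells were flagged cytotoxic if IncuCyte confluency was under 70% of agonist controls in both mask sets.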
# RAW-Dual [2] = assay: NF-kB SEAP reporter activity, fold change vs agonist alone; cytotoxicity flag (confluency mask): cytotoxic (confluency <70% of control); higher = enhanced NF-kB activity
# Method in brief: as §1
# RAW-Dual [3] = assay: NF-kB SEAP reporter activity, fold change vs agonist alone; cytotoxicity flag (confluency mask): not cytotoxic; higher = enhanced NF-kB activity
# Method in brief: as §1
# [4] = cytotoxicity flag (confluency mask): cytotoxic (confluency <70% of control), agonist: Imiquimod (TLR7) […]
# [5] = cytotoxicity flag (confluency mask): cytotoxic (confluency <70% of control), agonist: MPLA (TLR4) […]
# [6] = agonist: ODN 1826 (TLR9) 0.5 ug/mL
# [7] = agonist: Pam2CSK4 (TLR2/6) 0.1 ug/mL
# [8] = agonist: Pam3CSK4 (TLR2/1) 0.1 ug/mL
# [9] = cytotoxicity flag (confluency mask): not cytotoxic, agonist: Imiquimod (TLR7) […]
# [10] = cytotoxicity flag (confluency mask): not cytotoxic, agonist: MPLA (TLR4) […]
compound,measurement,setting,value
CCOC(=O)C1=C(N)Oc2ccc(Cl)cc2C1C(C#N)C(=O)OCC (stereo not given),NF-kB SEAP reporter activity,RAW-Dual [1]; [4],0.749
same,NF-kB SEAP reporter activity,RAW-Dual [1]; [5],1.47
CCOC(=O)C1=C(N)Oc2ccc(Cl)cc2C1C(C#N)C(=O)OCC (stereo not given) (library stock concentration (final ~1000-fold dilution): 10 mM),NF-kB SEAP reporter activity,RAW-Dual [2]; agonist: LPS (TLR4) 0.1 ug/mL,1.1
same,NF-kB SEAP reporter activity,RAW-Dual [2]; [6],0.413
same,NF-kB SEAP reporter activity,RAW-Dual [2]; [7],0.654
same,NF-kB SEAP reporter activity,RAW-Dual [2]; [8],0.405
Cc1nc(C(=O)NCC(=O)O)c(O)c2ccc(Oc3ccccc3)cc12,NF-kB SEAP reporter activity,RAW-Dual [1]; [9],0.822
same,NF-kB SEAP reporter activity,RAW-Dual [1]; [10],0.651
Cc1nc(C(=O)NCC(=O)O)c(O)c2ccc(Oc3ccccc3)cc12 (library stock concentration (final ~1000-fold dilution): 10 mM),NF-kB SEAP reporter activity,RAW-Dual [3]; agonist: LPS (TLR4) 0.1 ug/mL,0.514
same,NF-kB SEAP reporter activity,RAW-Dual [3]; [6],0.69
same,NF-kB SEAP reporter activity,RAW-Dual [3]; [7],0.307
same,NF-kB SEAP reporter activity,RAW-Dual [3]; [8],0.384
COc1nc2ccc(Br)cc2cc1C(c1ccccc1)C(O)(CCN(C)C)c1cccc2ccccc12 (stereo not given),NF-kB SEAP reporter activity,RAW-Dual [1]; [9],0.771
same,NF-kB SEAP reporter activity,RAW-Dual [1]; [10],0.783
COc1nc2ccc(Br)cc2cc1C(c1ccccc1)C(O)(CCN(C)C)c1cccc2ccccc12 (stereo not given) (library stock concentration (final ~1000-fold dilution): 10 mM),NF-kB SEAP reporter activity,RAW-Dual [3]; agonist: LPS (TLR4) 0.1 ug/mL,0.761
same,NF-kB SEAP reporter activity,RAW-Dual [3]; [6],0.86
same,NF-kB SEAP reporter activity,RAW-Dual [3]; [7],0.78
same,NF-kB SEAP reporter activity,RAW-Dual [3]; [8],0.531
COc1cc2c(NC3CCN(C(C)C)CC3)nc(N3CCC(F)(F)CC3)nc2cc1OCCCN1CCCC1,NF-kB SEAP reporter activity,RAW-Dual [1]; [4],0.781
same,NF-kB SEAP reporter activity,RAW-Dual [1]; [5],1.92
COc1cc2c(NC3CCN(C(C)C)CC3)nc(N3CCC(F)(F)CC3)nc2cc1OCCCN1CCCC1 (library stock concentration (final ~1000-fold dilution): 10 mM),NF-kB SEAP reporter activity,RAW-Dual [2]; agonist: LPS (TLR4) 0.1 ug/mL,2.55
same,NF-kB SEAP reporter activity,RAW-Dual [2]; [6],0.219
same,NF-kB SEAP reporter activity,RAW-Dual [2]; [7],0.794
same,NF-kB SEAP reporter activity,RAW-Dual [2]; [8],1.38
COc1cc(NS(=O)(=O)c2ccc(N)cc2)ncn1 (library stock concentration (final ~1000-fold dilution): 10 mM),NF-kB SEAP reporter activity,RAW-Dual [3]; agonist: LPS (TLR4) 0.1 ug/mL,0.983
same,NF-kB SEAP reporter activity,RAW-Dual [3]; [6],0.98
same,NF-kB SEAP reporter activity,RAW-Dual [3]; [7],0.943
same,NF-kB SEAP reporter activity,RAW-Dual [3]; [8],1.11
COc1cc(NS(=O)(=O)c2ccc(N)cc2)ncn1,NF-kB SEAP reporter activity,RAW-Dual [1]; [9],1.07
same,NF-kB SEAP reporter activity,RAW-Dual [1]; [10],1.07
CC1(F)C(O)C(CO)OC1n1ccc(=O)[nH]c1=O (stereo not given),NF-kB SEAP reporter activity,RAW-Dual [1]; [10],1.02
CC1(F)C(O)C(CO)OC1n1ccc(=O)[nH]c1=O (stereo not given) (library stock concentration (final ~1000-fold dilution): 10 mM),NF-kB SEAP reporter activity,RAW-Dual [3]; agonist: LPS (TLR4) 0.1 ug/mL,1.26
same,NF-kB SEAP reporter activity,RAW-Dual [3]; [6],0.945
same,NF-kB SEAP reporter activity,RAW-Dual [3]; [7],0.82
same,NF-kB SEAP reporter activity,RAW-Dual [3]; [8],0.78
CN1CCN2c3ncccc3Cc3ccccc3C2C1 (stereo not given) (library stock concentration (final ~1000-fold dilution): 10 mM),NF-kB SEAP reporter activity,RAW-Dual [3]; agonist: LPS (TLR4) 0.1 ug/mL,1.26
same,NF-kB SEAP reporter activity,RAW-Dual [3]; [6],1.18
same,NF-kB SEAP reporter activity,RAW-Dual [3]; [7],1.12
same,NF-kB SEAP reporter activity,RAW-Dual [3]; [8],1.11
CN1CCN2c3ncccc3Cc3ccccc3C2C1 (stereo not given),NF-kB SEAP reporter activity,RAW-Dual [1]; [9],0.926
same,NF-kB SEAP reporter activity,RAW-Dual [1]; [10],1.04
CCOC(=O)C(CCc1ccccc1)NC1CSC(c2cccs2)CN(CC(=O)O)C1=O.Cl (stereo not given) (library stock concentration (final ~1000-fold dilution): 10 mM),NF-kB SEAP reporter activity,RAW-Dual [3]; agonist: LPS (TLR4) 0.1 ug/mL,0.869
same,NF-kB SEAP reporter activity,RAW-Dual [3]; [6],1.04
same,NF-kB SEAP reporter activity,RAW-Dual [3]; [7],0.946
same,NF-kB SEAP reporter activity,RAW-Dual [3]; [8],1.15
CCOC(=O)C(CCc1ccccc1)NC1CSC(c2cccs2)CN(CC(=O)O)C1=O.Cl (stereo not given),NF-kB SEAP reporter activity,RAW-Dual [1]; [9],1.01
same,NF-kB SEAP reporter activity,RAW-Dual [1]; [10],1.01
CCn1c(=O)c2c(nc(/C=C/c3ccc(OC)c(OC)c3)n2C)n(CC)c1=O (library stock concentration (final ~1000-fold dilution): 10 mM),NF-kB SEAP reporter activity,RAW-Dual [3]; agonist: LPS (TLR4) 0.1 ug/mL,1.34
same,NF-kB SEAP reporter activity,RAW-Dual [3]; [6],1.08
same,NF-kB SEAP reporter activity,RAW-Dual [3]; [7],1.33
same,NF-kB SEAP reporter activity,RAW-Dual [3]; [8],1.3
CCn1c(=O)c2c(nc(/C=C/c3ccc(OC)c(OC)c3)n2C)n(CC)c1=O,NF-kB SEAP reporter activity,RAW-Dual [1]; [9],1.1
same,NF-kB SEAP reporter activity,RAW-Dual [1]; [10],1.09
CCS(=O)(=O)c1cccc(-c2cc(C(=O)NC3CCN(C)CC3)c(C)c3[nH]c4ncc(C)cc4c23)c1 (library stock concentration (final ~1000-fold dilution): 10 mM),NF-kB SEAP reporter activity,RAW-Dual [2]; agonist: LPS (TLR4) 0.1 ug/mL,0.336
same,NF-kB SEAP reporter activity,RAW-Dual [2]; [6],1.79
same,NF-kB SEAP reporter activity,RAW-Dual [2]; [7],0.306
same,NF-kB SEAP reporter activity,RAW-Dual [2]; [8],1.1
CCS(=O)(=O)c1cccc(-c2cc(C(=O)NC3CCN(C)CC3)c(C)c3[nH]c4ncc(C)cc4c23)c1,NF-kB SEAP reporter activity,RAW-Dual [1]; [4],1.08
same,NF-kB SEAP reporter activity,RAW-Dual [1]; [5],0.643
Fc1ccc(Cn2c(Cl)nc3ccccc32)cc1,NF-kB SEAP reporter activity,RAW-Dual [1]; [10],1.44
Fc1ccc(Cn2c(Cl)nc3ccccc32)cc1 (library stock concentration (final ~1000-fold dilution): 10 mM),NF-kB SEAP reporter activity,RAW-Dual [3]; agonist: LPS (TLR4) 0.1 ug/mL,1.53
same,NF-kB SEAP reporter activity,RAW-Dual [3]; [6],0.823
same,NF-kB SEAP reporter activity,RAW-Dual [3]; [7],0.902
same,NF-kB SEAP reporter activity,RAW-Dual [3]; [8],0.885
C[C@H]1CC[C@@]2(OC1)O[C@H]1C[C@H]3[C@@H]4CC[C@@H]5C[C@@H](O)CC[C@]5(C)[C@H]4CC[C@]3(C)[C@H]1[C@@H]2C,NF-kB SEAP reporter activity,RAW-Dual [1]; [9],0.927
same,NF-kB SEAP reporter activity,RAW-Dual [1]; [10],1.07
C[C@H]1CC[C@@]2(OC1)O[C@H]1C[C@H]3[C@@H]4CC[C@@H]5C[C@@H](O)CC[C@]5(C)[C@H]4CC[C@]3(C)[C@H]1[C@@H]2C (library stock concentration (final ~1000-fold dilution): 10 mM),NF-kB SEAP reporter activity,RAW-Dual [3]; agonist: LPS (TLR4) 0.1 ug/mL,1.33
same,NF-kB SEAP reporter activity,RAW-Dual [3]; [6],0.993
same,NF-kB SEAP reporter activity,RAW-Dual [3]; [7],1.12
same,NF-kB SEAP reporter activity,RAW-Dual [3]; [8],1.02
CC(Cn1ccc(-c2ccc(C#N)c(Cl)c2)n1)NC(=O)c1cc(C(C)O)[nH]n1 (stereo not given) (library stock concentration (final ~1000-fold dilution): 10 mM),NF-kB SEAP reporter activity,RAW-Dual [3]; agonist: LPS (TLR4) 0.1 ug/mL,1.25
same,NF-kB SEAP reporter activity,RAW-Dual [3]; [6],1.04
same,NF-kB SEAP reporter activity,RAW-Dual [3]; [7],1
same,NF-kB SEAP reporter activity,RAW-Dual [3]; [8],1.31
CC(Cn1ccc(-c2ccc(C#N)c(Cl)c2)n1)NC(=O)c1cc(C(C)O)[nH]n1 (stereo not given),NF-kB SEAP reporter activity,RAW-Dual [1]; [9],0.922
same,NF-kB SEAP reporter activity,RAW-Dual [1]; [10],1.02
NC(=O)C1CCCc2c1[nH]c1ccc(Cl)cc21 (stereo not given),NF-kB SEAP reporter activity,RAW-Dual [1]; [9],1.06
same,NF-kB SEAP reporter activity,RAW-Dual [1]; [10],1.08
NC(=O)C1CCCc2c1[nH]c1ccc(Cl)cc21 (stereo not given) (library stock concentration (final ~1000-fold dilution): 10 mM),NF-kB SEAP reporter activity,RAW-Dual [3]; agonist: LPS (TLR4) 0.1 ug/mL,1.09
same,NF-kB SEAP reporter activity,RAW-Dual [3]; [6],1.1
same,NF-kB SEAP reporter activity,RAW-Dual [3]; [7],0.903
same,NF-kB SEAP reporter activity,RAW-Dual [3]; [8],1.12
CC1CN(CC(=O)Nc2ccc3c(c2)Cc2cccc(-c4cc(=O)cc(N5CCOCC5)o4)c2S3)CC(C)O1 (stereo not given) (library stock concentration (final ~1000-fold dilution): 10 mM),NF-kB SEAP reporter activity,RAW-Dual [3]; agonist: LPS (TLR4) 0.1 ug/mL,5.33
same,NF-kB SEAP reporter activity,RAW-Dual [3]; [6],0.922
same,NF-kB SEAP reporter activity,RAW-Dual [3]; [7],1.36
same,NF-kB SEAP reporter activity,RAW-Dual [3]; [8],1.99
CC1CN(CC(=O)Nc2ccc3c(c2)Cc2cccc(-c4cc(=O)cc(N5CCOCC5)o4)c2S3)CC(C)O1 (stereo not given),NF-kB SEAP reporter activity,RAW-Dual [1]; [9],1.54
same,NF-kB SEAP reporter activity,RAW-Dual [1]; [10],2.82
CC1(C)CN(C(=O)c2ccc(-c3cccc4nc(NC(=O)C5CC5)nn34)cc2)C1,NF-kB SEAP reporter activity,RAW-Dual [1]; [9],0.961
same,NF-kB SEAP reporter activity,RAW-Dual [1]; [10],0.977
CC1(C)CN(C(=O)c2ccc(-c3cccc4nc(NC(=O)C5CC5)nn34)cc2)C1 (library stock concentration (final ~1000-fold dilution): 10 mM),NF-kB SEAP reporter activity,RAW-Dual [3]; agonist: LPS (TLR4) 0.1 ug/mL,0.769
same,NF-kB SEAP reporter activity,RAW-Dual [3]; [6],1.1
same,NF-kB SEAP reporter activity,RAW-Dual [3]; [7],1.01
same,NF-kB SEAP reporter activity,RAW-Dual [3]; [8],1.04
Clc1ccc(C2(c3ccc(-c4cn[nH]c4)cc3)CCNCC2)cc1,NF-kB SEAP reporter activity,RAW-Dual [1]; [4],2.21
same,NF-kB SEAP reporter activity,RAW-Dual [1]; [5],0.649
Clc1ccc(C2(c3ccc(-c4cn[nH]c4)cc3)CCNCC2)cc1 (library stock concentration (final ~1000-fold dilution): 10 mM),NF-kB SEAP reporter activity,RAW-Dual [2]; agonist: LPS (TLR4) 0.1 ug/mL,0.443
same,NF-kB SEAP reporter activity,RAW-Dual [2]; [6],0.2
same,NF-kB SEAP reporter activity,RAW-Dual [2]; [7],0.426
same,NF-kB SEAP reporter activity,RAW-Dual [2]; [8],0.645
